Consider 57 molecules from the supplement of paper PMC9446081.

Out of some 39,000 compounds screened, about 220 (0.56%) showed activity. The list shows a part of the results.
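Further: static incubation at 37 °C against the wild-type strain, values averaged over two biological replicates.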

The test system of this assay is Escherichia coli K-12 BW25113. Put plainly: relative growth (OD600 normalised to plate interquartile mean) (fraction); higher = less growth inhibition, active = 0.2 or less. The conditions noted are these: 50 µM; LB; incubation time: overnight (16-24 h).
On to `O=C(C[C@H]1C[C@@H]2c3cc(NC(=O)c4ccc5c(c4)OCO5)ccc3O[C@@H]2[C@@H](CO)O1)NCc1ccc(Oc2ccccc2)cc1`, for which the relative growth is inactive: 1.03.
Consider `CC(C)NC(=O)N(C)C[C@@H]1OCCCC[C@@H](C)Oc2ccc(NC(=O)Nc3ccc(F)cc3)cc2C(=O)N([C@@H](C)CO)C[C@H]1C`, for which the relative growth was inactive: 1.
As for `CN(C)CC(=O)N1[C@@H]2c3ccc(-c4cccnc4)c(=O)n3C[C@H]1[C@H](CO)[C@H]2C(=O)NC1CCC1`, the relative growth was inactive: 0.986.
Under `CC1(C)C(=O)NCCN1C(=O)c1ccco1` stands inactive: 0.984; under `C[C@@H]1CCCCO[C@@H](CN(C)S(=O)(=O)c2ccc(F)cc2)[C@@H](C)CN([C@@H](C)CO)C(=O)c2cc(NS(C)(=O)=O)ccc2O1`, inactive: 1.01.
Under `Cc1noc(C)c1NC(=O)Nc1ccc2c(c1)C(=O)N([C@H](C)CO)C[C@H](C)[C@@H](CN(C)C(=O)NC(C)C)O2` stands inactive: 0.985; under `CN1CCN(C(=O)C[C@@H]2CC[C@H]3[C@H](COc4ccc(NC(=O)c5ccc(F)c(F)c5)cc4C(=O)N3C)O2)CC1`, inactive: 0.986.
Under `C[C@@H]1CN([C@@H](C)CO)C(=O)c2cccc(NC(=O)c3ccncc3)c2O[C@H]1CN(C)Cc1ccc(-c2ccccc2)cc1` stands inactive: 1.03; under `C[C@H](CO)N1C[C@H](C)[C@H](CN(C)CC2CC2)Oc2cc(C#Cc3ccccc3F)ccc2S1(=O)=O`, inactive: 0.982.
For `O=C(C[C@@H]1CC[C@H]2[C@@H](COC[C@H](O)CN2C(=O)c2ccc3c(c2)OCO3)O1)NCCN1CCCCC1`, the relative growth is inactive: 0.93.
Under `C[C@H]1CN([C@@H](C)CO)C(=O)c2cccc(NS(C)(=O)=O)c2O[C@@H]1CN(C)S(=O)(=O)c1ccccc1` stands inactive: 0.916; under `COc1ccc(CN(C)C[C@H]2Oc3ccc(NC(=O)CCN4CCOCC4)cc3CC(=O)N([C@H](C)CO)C[C@@H]2C)cc1`, inactive: 0.966; under `Cc1ccc(S(=O)(=O)Nc2ccc3c(c2)C(=O)N([C@@H](C)CO)C[C@H](C)[C@@H](CN(C)C(=O)Nc2c(C)noc2C)OCCCC[C@@H](C)O3)cc1`, inactive: 1.03.
The result for `C[C@H]1CN([C@@H](C)CO)S(=O)(=O)c2ccc(C#CC3CC3)cc2O[C@@H]1CN(C)Cc1ccccc1F` reads inactive: 1.03.
Under `C[C@H]1CN([C@@H](C)CO)S(=O)(=O)c2ccc(C#Cc3ccccn3)cc2O[C@@H]1CN(C)Cc1ccccc1` stands inactive: 1.02.
`O=C(C[C@H]1C=C[C@@H](NC(=O)CN2CCOCC2)[C@@H](CO)O1)NC1CCC1`: the relative growth was inactive: 1.01.
Under `CCCNC(=O)N1C[C@H](O)COC[C@@H]2O[C@@H](CC(=O)NCc3ccncn3)CC[C@H]21` stands inactive: 1.01; under `C[C@H](CO)N1C[C@H](C)[C@H](CN(C)S(=O)(=O)c2cn(C)cn2)Oc2ccc(N(C)C)cc2CC1=O`, inactive: 0.975; under `C[C@@H]1CN([C@H](C)CO)C(=O)Cc2cc(NS(=O)(=O)c3ccc(Cl)cc3)ccc2O[C@H]1CN(C)Cc1ccc(-c2ccccc2)cc1`, inactive: 0.966.
The result for `C[C@H]1CCCCO[C@H](CN(C)C(=O)CCC(F)(F)F)[C@@H](C)CN([C@@H](C)CO)C(=O)c2cc(NC(=O)C3CCCCC3)ccc2O1` reads inactive: 0.989.
With `C=CCC[C@H](Cc1ccc(F)cc1)C(=O)OC[C@@H](NC(=O)[C@@H](CC=C)CC(=O)N[C@@H](CO)Cc1ccccc1)C(C)(C)C`, the relative growth is inactive: 1.05.
Consider `Cc1ccc(S(=O)(=O)N(C)C[C@H]2Oc3c(NS(C)(=O)=O)cccc3C(=O)N([C@@H](C)CO)C[C@H]2C)cc1`, for which the relative growth was inactive: 1.02.
Under `C[C@H](CO)N1C[C@H](C)[C@@H](CN(C)C(=O)Nc2ccc(F)cc2)Oc2ccc(NC(=O)Cn3cnnn3)cc2CC1=O` stands inactive: 1; under `C[C@@H]1CCCCO[C@H](CN(C)C(=O)Nc2ccc3c(c2)OCO3)[C@@H](C)CN([C@H](C)CO)C(=O)c2cc(NS(=O)(=O)c3ccc(Cl)cc3)ccc2O1`, inactive: 1.04.
Turning to `Nc1cnn([C@H]2O[C@@H](COC(=O)c3ccccc3)[C@@H](O)[C@@H]2O)c(=O)n1`, the relative growth is inactive: 1.05.
On to `C[C@@H]1CCCCO[C@H](CN(C)S(=O)(=O)c2cccs2)[C@@H](C)CN([C@@H](C)CO)C(=O)c2cc(NC(=O)NC3CCCCC3)ccc2O1`, for which the relative growth was inactive: 1.01.
Under `CCCNC(=O)N1C[C@@H](O)COC[C@@H]2O[C@@H](CC(=O)N3CCOCC3)CC[C@H]21` stands inactive: 0.995.
`CN(C)CCNC(=O)COc1c2cccc1Cc1cccc(c1OCC(=O)NCCN(C)C)Cc1cccc(c1OCC(=O)NCCN(C)C)Cc1cccc(c1OCC(=O)NCCN(C)C)C2`: the relative growth is inactive: 0.951.
Under `COCc1cn(CC[C@@H]2CC[C@H](NC(=O)CCN3CCCCC3)[C@H](CO)O2)nn1` stands inactive: 1; under `C[C@H](CO)N1C[C@H](C)[C@H](CN(C)C(=O)Nc2ccc(C(F)(F)F)cc2)Oc2ccc(NC(=O)Nc3ccccc3)cc2CC1=O`, inactive: 1.01.
Turning to `C[C@@H]1CN([C@H](C)CO)S(=O)(=O)c2ccc(-c3cccnc3)cc2O[C@@H]1CN(C)C(=O)NC1CCCC1`, the relative growth is inactive: 1.01.
The result for `COc1ccc(NC(=O)Nc2ccc3c(c2)C(=O)N([C@@H](C)CO)C[C@@H](C)[C@H](CN(C)S(=O)(=O)c2ccc(OC)cc2)OCCCC[C@@H](C)O3)cc1` reads inactive: 1.03; that for `COCC#Cc1ccc([C@H]2[C@H](CO)N3C(=O)CN(C(=O)C4CCOCC4)C[C@@H]23)cc1`, inactive: 0.994; that for `COc1ccc(S(=O)(=O)Nc2ccc3c(c2)C(=O)N([C@@H](C)CO)C[C@@H](C)[C@@H](CN(C)C(=O)c2ccccc2)OCCCC[C@H](C)O3)cc1`, inactive: 1.02.
Turning to `COc1ccc(NC(=O)N(C)C[C@H]2OCCCC[C@@H](C)Oc3ccc(NC(=O)Nc4c(C)noc4C)cc3C(=O)N([C@H](C)CO)C[C@H]2C)cc1`, the relative growth was inactive: 0.993.
On to `C[C@H](CO)N1C[C@H](C)[C@@H](CN(C)Cc2ccc(Oc3ccccc3)cc2)Oc2c(NC(=O)CCCCCC(=O)Nc3ccccc3N)cccc2C1=O`, for which the relative growth is inactive: 1.01.
Under `O=C(Cc1ccncc1)Nc1ccc2c(c1)[C@H]1C[C@H](CC(=O)N3CCc4ccccc4C3)O[C@H](CO)[C@H]1O2` stands inactive: 0.993; under `CC(C)NC(=O)N(C)C[C@@H]1OCCCC[C@@H](C)Oc2ccc(NC(=O)C3CCCCC3)cc2C(=O)N([C@H](C)CO)C[C@H]1C`, inactive: 0.907.
With `COCOC[C@H](C)N1C[C@@H](C)[C@H](CN(C)S(=O)(=O)c2ccc(F)cc2)OCCCC[C@H](C)Oc2ccc(NC(=O)Nc3ccccc3)cc2C1=O`, the relative growth is inactive: 1.02.
Under `C[C@@H]1CN([C@H](C)CO)C(=O)Cc2cc(NC(=O)CCCCCC(=O)Nc3ccccc3N)ccc2O[C@@H]1CN(C)Cc1ccc(Cl)c(Cl)c1` stands inactive: 1.03; under `CC[C@@H](Nc1n[nH]c(=O)[nH]c1=O)C(=O)OC`, inactive: 0.98; under `C[C@H]1CN([C@@H](C)CO)C(=O)c2cccc(NC(=O)c3ccncc3)c2O[C@@H]1CN(C)S(=O)(=O)c1cn(C)cn1`, inactive: 0.908.
Under `C[C@@H]1CN([C@@H](C)CO)C(=O)c2cc(NC(=O)Nc3ccc(F)cc3)ccc2O[C@@H](C)CCCCO[C@@H]1CN(C)S(=O)(=O)c1ccc(F)cc1` stands inactive: 1.04.
Under `C[C@@H]1CN([C@H](C)CO)C(=O)c2cc(NS(C)(=O)=O)ccc2O[C@@H](C)CCCCO[C@@H]1CN(C)S(=O)(=O)c1cn(C)cn1` stands inactive: 1.01; under `O=C(NN=Cc1ccc([N+](=O)[O-])o1)c1ccc(O)cc1`, inactive: 0.973; under `Cc1ccc(S(=O)(=O)N(C)C[C@@H]2Oc3c(NS(=O)(=O)c4ccc(F)cc4)cccc3C(=O)N([C@@H](C)CO)C[C@H]2C)cc1`, inactive: 1.
Consider `COc1ccc(S(=O)(=O)Nc2ccc3c(c2)C(=O)N([C@@H](C)CO)C[C@@H](C)[C@H](CN(C)Cc2ccc(C(F)(F)F)cc2)OCCCC[C@H](C)O3)cc1`, for which the relative growth is inactive: 1.03.
In the case of `C[C@@H]1CN([C@@H](C)CO)C(=O)c2cc(NC(=O)Nc3ccc(C(F)(F)F)cc3)ccc2O[C@H]1CN(C)C(=O)Nc1ccc(F)cc1`, the relative growth was inactive: 0.999.
The result for `Cc1ccc(S(=O)(=O)Nc2cccc3c2O[C@@H](CN(C)S(C)(=O)=O)[C@@H](C)CN([C@@H](C)CO)C3=O)cc1` reads inactive: 0.984; that for `C[C@@H]1CCCCO[C@H](CN(C)C(=O)Nc2ccccc2)[C@H](C)CN([C@@H](C)CO)C(=O)c2cc(NS(=O)(=O)c3ccc(Cl)cc3)ccc2O1`, inactive: 1.03; that for `COc1ccc(CCNC(=O)[C@@]2(Sc3ccc(C)cc3)CC(=O)N(C3CCCCC3)[C@@H]2c2ccc(CO)cc2I)cc1`, inactive: 1.02.
The result for `O=C(C[C@@H]1CC[C@@H]2NC[C@H](O)COC[C@H]2O1)NCCN1CCCC1` reads inactive: 0.993; that for `C[C@H](CO)N1C[C@H](C)[C@@H](CN(C)Cc2ccc(-c3ccccc3)cc2)Oc2ccc(NC(=O)Nc3cccc4ccccc34)cc2CC1=O`, inactive: 0.997; that for `COc1ccc(CN(C)C[C@@H]2OCCCC[C@H](C)Oc3ccc(NC(=O)Nc4ccc(F)cc4)cc3C(=O)N([C@H](C)CO)C[C@@H]2C)cc1`, inactive: 0.98.
Under `O=C(C[C@H]1CC[C@H]2[C@@H](COC[C@@H](O)CN2Cc2cccc(C(F)(F)F)c2)O1)NCCc1ccncc1` stands inactive: 0.999.
With `C[C@H]1CCCCO[C@H](CN(C)Cc2ccc(C(=O)O)cc2)[C@@H](C)CN([C@@H](C)CO)C(=O)c2cc(NC(=O)Nc3ccc(F)cc3)ccc2O1`, the relative growth is inactive: 1.02.
Take `CC(C)[C@@H](CO)N1C(=O)[C@]2(C)[C@H]3C(=O)OCCC/C=C\[C@H]3O[C@]23C=CCN(c2ccc(Cl)cc2)C(=O)[C@@H]13`: the relative growth is inactive: 0.987.
